Assay results: PubChem BioAssay (Tox21)
Where “and” joins values, the source holds several entries; their conditions need not be identical. Equal entries are not always repeated. The shares of active, inactive and inconclusive entries below differ from those in the screen. For part of these data: A potency beside an inconclusive call is a rough fit, not a confirmed value. More than one record can exist for a structure, and the calls need not agree. Calls of active or inactive are those of the source. Unless noted, the call rests on the fitted dose curve.

How the values were obtained:
[1] = qHTS assay to identify small molecule antagonists of the estrogen receptor alpha (ER-alpha) signaling pathway using the BG1 cell line (AID 743080); conditions: BG1Luc4E2 ERE-luciferase antagonist mode, luminescence; activity change, negative = inhibition: at 70.3 µM (top of the series) unless noted;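 further: BG1 cells stimulated with 17beta-estradiol alongside compound; nearly all actives have a fitted effect of over 25% in size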; on activity change, negative = inhibition: on the % scale 0 is the no-effect control and ±100 the full control effect
Method in brief: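 Seeding, 24 h rest, compound transfer from DMSO, 17beta-estradiol addition, 21.5 h incubation, CellTiter-Fluor (30 min, 37 C), then ONE-Glo (30 min, room temperature): this sequence was run on BG1-Luc-4E2 reporter cells.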

[2] = target: Aryl hydrocarbon receptor (Homo sapiens) (UniProt P35869); assay: qHTS assay to identify small molecule that activate the aryl hydrocarbon receptor (AhR) signaling pathway (AID 743085; active means well fitted curve in the direction sought with a large enough effect in the repeat runs; inconclusive means weak or mixed curves; inactive means no such curve, though single readings can be large; an effect the other way counts as inactive or inconclusive; further: nearly all actives have a fitted effect of over 15% in size;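 on activation: HG2L7.5c1 human HepG2 liver cells with stably integrated DRE-driven firefly reporter; on the % scale 0 is the no-effect control and ±100 the full control effect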)
Method in brief: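 Cell line HG2L7.5c1 (human hepatoma, 20× DRE-luc). Plated, 5 h 37C, compound/DMSO added, 24 h 37C. CellTiter-Fluor 30 min 37C → fluorescence; then ONE-Glo 30 min RT → luminescence.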

[3] = target: Peroxisome proliferator-activated receptor gamma (Homo sapiens) (UniProt P37231); assay: qHTS assay to identify small molecule agonists of the peroxisome proliferator-activated receptor gamma (PPARg) signaling pathway (AID 743094; active means well fitted activation curve with a large enough effect in the signal ratio in the repeat runs, not every such curve was filed as active; inconclusive means weak or mixed curves, or effect the other way; inactive means no such curve, though single readings can be large or run the other way; the % refers to the signal ratio; on activation: on the % scale 0 is the no-effect control and ±100 the full control effect); conditions: HEK293H PPARg-UAS-bla, beta-lactamase FRET ratio, 17 h
Method in brief: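 Agonist activity was taken from a beta-lactamase reporter (FRET substrate, 1 h at room temperature) in HEK293H cells carrying a PPARg UAS-bla construct. Compounds in DMSO were incubated 17 h at 37C after a 5 h cell pre-incubation.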

[4] = target: Peroxisome proliferator-activated receptor gamma (Homo sapiens) (UniProt P37231); assay: qHTS assay to identify small molecule antagonists of the peroxisome proliferator-activated receptor gamma (PPARg) signaling pathway (AID 743191); conditions: HEK293H PPARg-UAS-bla, beta-lactamase ratio, antagonist, 17 h; ratio activity, negative = inhibition: at 62.6 µM (top of the series) unless noted; further: nearly all actives have a fitted effect of over 30% in size; on ratio activity, negative = inhibition: on the % scale 0 is the no-effect control and ±100 the full control effect
Method in brief: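 GeneBLAzer PPARg UAS-bla HEK293H cells, 5 h post-plating, exposed to compounds 17 h at 37C. LiveBLAzer B/G FRET substrate added for 1 h at room temperature; beta-lactamase reporter read by fluorescence intensity.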

[5] = qHTS assay to identify small molecule antagonists of the estrogen receptor alpha (ER-alpha) signaling pathway using the BG1 cell line - cell viability counter screen (AID 743081; active means well fitted curve in the direction sought with a large enough effect in the repeat runs; inconclusive means weak or mixed curves; inactive means no such curve, though single readings can be large; an effect the other way counts as inactive or inconclusive;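 further: compound given together with 17beta-estradiol as the ER stimulus; nearly all actives have a fitted effect of over 45% in size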)
[6] = qHTS assay to identify aromatase inhibitors - cell viability counter screen (AID 743084; active means well fitted curve in the direction sought with a large enough effect in the repeat runs; inconclusive means weak or mixed curves; inactive means no such curve, though single readings can be large; an effect the other way counts as inactive or inconclusive;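 further: cells stimulated with testosterone during compound exposure; nearly all actives have a fitted effect of over 55% in size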)
Aromatase (Homo sapiens) = Aromatase (Homo sapiens) (UniProt P11511); assay: qHTS assay to identify aromatase inhibitors (AID 743083; active means well fitted curve in the direction sought with a large enough effect in the repeat runs; inconclusive means weak or mixed curves; inactive means no such curve, though single readings can be large; an effect the other way counts as inactive or inconclusive; further: nearly all actives have a fitted effect of over 55% in size)
[7] = activation: at 57 µM (top of the series) unless noted
Potency means the concentration at half of the fitted maximal effect; tags describe the fitted curve by direction and shape or compound fluorescence and quenching.

UniProt P37231, sequence (P37231 whole entry, looked up): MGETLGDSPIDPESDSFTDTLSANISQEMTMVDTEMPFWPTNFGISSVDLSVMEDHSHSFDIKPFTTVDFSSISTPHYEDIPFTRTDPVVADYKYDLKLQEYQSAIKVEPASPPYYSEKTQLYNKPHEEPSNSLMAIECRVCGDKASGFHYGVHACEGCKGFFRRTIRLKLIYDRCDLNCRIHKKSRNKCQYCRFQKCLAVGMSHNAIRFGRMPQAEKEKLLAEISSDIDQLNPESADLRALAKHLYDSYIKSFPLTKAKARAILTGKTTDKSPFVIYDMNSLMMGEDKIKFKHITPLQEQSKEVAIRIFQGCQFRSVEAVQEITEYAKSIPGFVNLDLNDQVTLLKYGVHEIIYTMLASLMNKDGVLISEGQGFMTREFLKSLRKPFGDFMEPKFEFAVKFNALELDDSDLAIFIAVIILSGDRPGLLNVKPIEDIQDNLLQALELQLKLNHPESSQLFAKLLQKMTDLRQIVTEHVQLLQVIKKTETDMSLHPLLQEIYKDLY
UniProt P35869, sequence (P35869 whole entry, looked up): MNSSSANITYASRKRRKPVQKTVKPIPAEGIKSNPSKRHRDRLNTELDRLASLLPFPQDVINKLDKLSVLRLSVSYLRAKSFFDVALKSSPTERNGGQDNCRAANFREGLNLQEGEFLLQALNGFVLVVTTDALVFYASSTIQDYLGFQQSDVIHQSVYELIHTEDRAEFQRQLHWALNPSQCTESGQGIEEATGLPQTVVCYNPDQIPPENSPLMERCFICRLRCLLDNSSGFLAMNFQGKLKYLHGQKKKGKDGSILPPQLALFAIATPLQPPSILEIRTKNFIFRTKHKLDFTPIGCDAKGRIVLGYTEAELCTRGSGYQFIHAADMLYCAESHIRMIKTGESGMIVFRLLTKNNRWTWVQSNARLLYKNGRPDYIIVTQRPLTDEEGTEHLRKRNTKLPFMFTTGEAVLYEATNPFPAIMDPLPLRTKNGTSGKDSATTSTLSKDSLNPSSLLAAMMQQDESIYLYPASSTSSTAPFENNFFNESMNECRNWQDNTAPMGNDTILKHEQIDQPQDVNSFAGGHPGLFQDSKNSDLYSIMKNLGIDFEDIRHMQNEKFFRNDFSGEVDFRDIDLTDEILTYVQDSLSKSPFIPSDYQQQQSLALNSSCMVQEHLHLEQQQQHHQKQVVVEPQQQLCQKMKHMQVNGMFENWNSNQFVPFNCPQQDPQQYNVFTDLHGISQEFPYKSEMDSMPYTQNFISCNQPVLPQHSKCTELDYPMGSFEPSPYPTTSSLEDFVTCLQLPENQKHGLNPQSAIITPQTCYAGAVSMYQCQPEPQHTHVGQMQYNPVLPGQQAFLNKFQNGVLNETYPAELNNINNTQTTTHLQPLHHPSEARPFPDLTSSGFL
UniProt P11511, sequence (P11511 whole entry, looked up): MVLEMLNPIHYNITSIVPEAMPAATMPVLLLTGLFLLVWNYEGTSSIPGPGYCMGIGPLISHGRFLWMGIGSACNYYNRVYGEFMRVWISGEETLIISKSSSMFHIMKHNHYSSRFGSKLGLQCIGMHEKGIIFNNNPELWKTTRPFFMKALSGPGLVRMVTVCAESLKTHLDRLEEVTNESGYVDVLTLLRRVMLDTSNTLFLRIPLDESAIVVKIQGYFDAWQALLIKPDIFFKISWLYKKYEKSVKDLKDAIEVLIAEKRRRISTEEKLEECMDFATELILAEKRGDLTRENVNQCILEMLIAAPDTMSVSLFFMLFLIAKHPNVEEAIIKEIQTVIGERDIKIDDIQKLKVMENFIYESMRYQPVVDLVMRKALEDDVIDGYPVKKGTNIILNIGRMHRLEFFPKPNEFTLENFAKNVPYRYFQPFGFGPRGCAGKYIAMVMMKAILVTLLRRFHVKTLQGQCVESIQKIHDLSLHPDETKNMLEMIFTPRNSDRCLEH

## C/C(=N\NC(=O)Nc1cc(F)cc(F)c1)c1ncccc1C(=O)O
[1]
  Potency: inactive
[2]
  Potency: inconclusive: 77 µM [activator, partial curve, poor fit]
[3]; [7]
  Potency: inactive
[4]
  ratio activity, negative = inhibition: inconclusive: 20.7%

## CCCCCCCCCCn1cc[n+](C)c1
[1]
  activity change, negative = inhibition: active: -3.71% [at 95 µM]
[5]
  Potency: inconclusive: 70.4 µM [cytotoxic, single point]
[6]
  Potency: inconclusive: 1.94 µM [cytotoxic, full curve, poor fit] and inconclusive: 10.9 µM [cytotoxic, partial curve, poor fit] and inconclusive: 68.5 µM [cytotoxic, partial curve, poor fit]
[3]; [7]
  Potency: inconclusive: 17.3 µM [falling, partial curve]
[3]; at 57 µM (top of the series)
  activation: inconclusive: -12.6%
[3]; at 78.9 µM (top of the series)
  activation: inconclusive: -9.86%

## BrCC(Br)(Br)Br
[1]
  Potency: active: 35.6 µM
[4]
  Potency: inactive

## Clc1ccccc1-c1ccccc1Cl
[6]
  Potency: inconclusive: 98.3 µM [cytotoxic, single point]
[4]
  ratio activity, negative = inhibition: inconclusive: -5.34% [at 81.1 µM]

## C[C@]12Cc3cn[nH]c3C[C@@H]1CC[C@@H]1[C@@H]2CC[C@@]2(C)[C@H]1CC[C@]2(C)O
[4]
  ratio activity, negative = inhibition: inconclusive: 18%

## NC(=S)c1c(Cl)cccc1Cl
[3]; [7]
  Potency: inactive
[4]
  Potency: inactive

## CCCCC(CC)COC(=O)Cl (centres undefined)
[4]
  Potency: inconclusive: 0.49 µM [fluorescent, full curve, poor fit]

## CCOP(=S)(OCC)SCSCC
[4]
  ratio activity, negative = inhibition: inconclusive: 16.6%

## NCC(O)c1ccc(O)cc1 (centres undefined)
[2]
  Potency: inactive
[4]
  ratio activity, negative = inhibition: inconclusive: 3.81% and inconclusive: -6.19%

## CC1(C)C(/C=C(\Cl)C(F)(F)F)C1C(=O)OC(C#N)c1cccc(Oc2ccccc2)c1 (centres undefined)
[5]
  Potency: inactive
[3]; [7]
  activation: inconclusive: 4.86% [at 78.9 µM]
[4]
  Potency: inconclusive: 62.6 µM [cytotoxic, partial curve, poor fit]

## CN=CNc1ccc(C)cc1C
[4]
  Potency: inactive

## CCc1cccc(C)c1N(C(=O)CCl)C(C)COC (centres undefined)
Aromatase (Homo sapiens)
  Potency: inconclusive: 57.6 µM [inhibitor] and inconclusive: 54.5 µM [inhibitor]
[3]; [7]
  activation: inconclusive: -11.1% and inconclusive: -12.9%

## COC(=O)c1ccccc1N
[3]; [7]
  activation: inconclusive: 4.8%
[4]
  Potency: inactive

## O=C(O)COc1ccc(Cl)cc1
[3]; [7]
  Potency: inactive
[4]
  ratio activity, negative = inhibition: inconclusive: 19%

## O=C(N[C@H]1CN2CCC1CC2)c1cc2ccoc2cn1
[4]
  Potency: inactive

## COc1ccc(/C(=C/C(=O)N2CCOCC2)c2ccc(Cl)cc2)cc1OC
[4]
  ratio activity, negative = inhibition: inconclusive: 20%

## CN(C)c1ccc(C(=O)c2ccc(N(C)C)cc2)cc1
[5]
  Potency: inconclusive: 60.5 µM [cytotoxic, single point]
[6]
  Potency: inconclusive: 68.6 µM [cytotoxic, partial curve, poor fit]
[2]
  Potency: active: 428 nM and active: 3.86 µM
[3]; [7]
  Potency: inconclusive: 54.4 µM [activator, single point]
  activation: inconclusive: 3.62%
[4]
  Potency: inconclusive: 54.9 µM [rising, single point]
